# The supplement of paper PMC9446081
# Out of some 39,000 compounds screened, about 220 (0.56%) showed activity. The list shows a part of the results.
# Tested on: Escherichia coli K-12 BW25113
# Test: relative growth (OD600 normalised to plate interquartile mean) (fraction); higher = less growth inhibition, active = 0.2 or less
# Conditions: 50 µM; LB; incubation time: overnight (16-24 h)
# 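Further: static incubation at 37 °C against the wild-type strain, values averaged over two biological replicates.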
row,Compound,relative growth
1,C[C@@H]1CN([C@H](C)CO)C(=O)c2cc(NC(=O)CCC(F)(F)F)ccc2O[C@@H](C)CCCCO[C@H]1CN(C)C(=O)Nc1ccc(F)cc1,inactive: 1.01
2,COc1ccccc1CN1C[C@@H](C)[C@H](OC)CN(C)C(=O)c2ccc(NC(=O)Nc3ccccc3OC)cc2OC[C@H]1C,inactive: 1.02
3,C[C@H]1CCCCO[C@@H](CN(C)C(=O)Nc2ccc(F)cc2)[C@@H](C)CN([C@@H](C)CO)C(=O)c2cc(NC(=O)Nc3ccc(C(F)(F)F)cc3)ccc2O1,inactive: 1.01
4,C[C@@H]1CN([C@H](C)CO)C(=O)c2cccc(NS(=O)(=O)c3cccs3)c2O[C@@H]1CN(C)S(C)(=O)=O,inactive: 1.03
5,COc1ccc(NC(=O)N(C)C[C@@H]2OCCCC[C@@H](C)Oc3ccc(NC(=O)Cc4ccccc4)cc3C(=O)N([C@@H](C)CO)C[C@H]2C)cc1,inactive: 0.987
6,COc1ccc(S(=O)(=O)N(C)C[C@@H]2Oc3ccc(NC(=O)c4ccncc4)cc3CC(=O)N([C@@H](C)CO)C[C@H]2C)cc1,inactive: 1.02
7,C[C@@H]1CCCCO[C@@H](CN(C)C(=O)Nc2ccc(F)cc2)[C@@H](C)CN([C@H](C)CO)C(=O)c2cc(NC(=O)NC3CCCCC3)ccc2O1,inactive: 1
8,COc1ccc(CN(C)C[C@@H]2OCCCC[C@H](C)Oc3ccc(NS(=O)(=O)c4c(C)noc4C)cc3C(=O)N([C@H](C)CO)C[C@H]2C)cc1,inactive: 1
9,C[C@H]1CN([C@@H](C)CO)C(=O)Cc2cc(NC(=O)CCN3CCOCC3)ccc2O[C@H]1CN(C)Cc1ccc2c(c1)OCO2,inactive: 0.965
10,C[C@H](CO)N1C[C@H](C)[C@H](CN(C)C(=O)Nc2ccccc2)Oc2ccc(NC(=O)Nc3ccc(C(F)(F)F)cc3)cc2C1=O,inactive: 1.01
11,COc1ccc(NC(=O)Nc2ccc3c(c2)C(=O)N([C@@H](C)CO)C[C@H](C)[C@@H](CN(C)C(=O)Nc2cccc4ccccc24)OCCCC[C@@H](C)O3)cc1,inactive: 1.02
12,C[C@H]1CN([C@@H](C)CO)C(=O)c2cccc(NS(=O)(=O)c3ccccc3)c2O[C@H]1CN(C)S(=O)(=O)c1ccccc1,inactive: 0.999
13,CCS(=O)(=O)Nc1ccc2c(c1)C(=O)N(C)[C@@H]1CC[C@H](CC(=O)NCc3ccc(OC)cc3)O[C@@H]1CO2,inactive: 0.988
14,O=C(C[C@H]1C[C@H]2c3cc(NS(=O)(=O)c4ccc(F)cc4)ccc3O[C@H]2[C@H](CO)O1)N1CCCCC1,inactive: 0.994
15,COc1ccc(CN(C)C[C@@H]2Oc3ccc(NS(C)(=O)=O)cc3CC(=O)N([C@@H](C)CO)C[C@H]2C)cc1,inactive: 1
16,C[C@@H]1CCCCO[C@@H](CN(C)C(=O)Nc2ccccc2)[C@@H](C)CN([C@@H](C)CO)C(=O)c2cc(NC(=O)Nc3cccc4ccccc34)ccc2O1,inactive: 0.98
17,Cc1nn(C)cc1NC(=O)C[C@@H]1CC[C@H]2[C@@H](COc3ccc(NC(=O)C4CCOCC4)cc3C(=O)N2C)O1,inactive: 0.972
18,COCC#Cc1cnc2c(c1)C(=O)N([C@@H](C)CO)C[C@@H](C)[C@H](CN(C)S(=O)(=O)c1cn(C)cn1)O2,inactive: 0.987
19,COc1ccc(NC(=O)N(C)C[C@@H]2Oc3ccc(NC(=O)C4CC4)cc3C(=O)N([C@H](C)CO)C[C@H]2C)cc1,inactive: 0.991
20,COc1ccc(CNC(=O)[C@H](c2ccc(C)cc2)N(Cc2cccs2)C(=O)c2ccc3c(c2)OCCO3)cc1,inactive: 0.984

row,Compound,relative growth
1,Cc1ccc(S(=O)(=O)N(C)C[C@H]2Oc3ccc(NS(=O)(=O)c4c(C)noc4C)cc3C(=O)N([C@@H](C)CO)C[C@@H]2C)cc1,inactive: 1.03
2,COc1ccccc1-c1ccc2c(c1)O[C@@H](CN(C)S(=O)(=O)c1ccccc1)[C@@H](C)CN([C@@H](C)CO)S2(=O)=O,inactive: 1.03
3,Cc1cc(C(=O)NCc2cc3n(n2)CCN(S(C)(=O)=O)C3)nc(C)n1,inactive: 0.962
4,O=C(C[C@H]1C[C@@H]2c3cc(NC(=O)Cc4ccncc4)ccc3O[C@@H]2[C@@H](CO)O1)NCCN1CCCCC1,inactive: 0.983
5,C[C@@H]1CN([C@@H](C)CO)C(=O)c2cc(NS(=O)(=O)c3ccccc3)ccc2O[C@@H]1CN(C)S(=O)(=O)c1cn(C)cn1,inactive: 1.02
6,Cc1noc(C)c1S(=O)(=O)Nc1ccc2c(c1)C(=O)N([C@@H](C)CO)C[C@@H](C)[C@H](CN(C)C(=O)Nc1ccc(C(F)(F)F)cc1)OCCCC[C@@H](C)O2,inactive: 1.01
7,C[C@]12CC[C@@H]3c4ccc(O)cc4C[C@@H](CCCCCCCCC[S@@](=O)CCCC(F)(F)C(F)(F)F)[C@H]3[C@@H]1CC[C@@H]2O,inactive: 1.01
8,C[C@@H]1CN([C@H](C)CO)C(=O)c2cccc(NS(C)(=O)=O)c2O[C@@H]1CN(C)C(=O)NC1CCCCC1,inactive: 0.99
9,CC(C)c1cc(=O)nc[nH]1,inactive: 0.991
10,NNC(=S)NCc1ccc(F)cc1,inactive: 0.993
11,C[C@H](CO)N1C[C@H](C)[C@H](CN(C)C(=O)Nc2cccc3ccccc23)Oc2ncc(C#Cc3ccccc3)cc2C1=O,inactive: 0.961
12,COc1ccc(NC(=O)N(C)C[C@@H]2OCCCC[C@H](C)Oc3ccc(NS(=O)(=O)c4cccs4)cc3C(=O)N([C@H](C)CO)C[C@@H]2C)cc1,inactive: 1.02
13,C[C@@H]1CCCCO[C@H](CN(C)Cc2ccc(Cl)c(Cl)c2)[C@@H](C)CN([C@H](C)CO)C(=O)c2cc(NS(=O)(=O)c3ccc(F)cc3)ccc2O1,inactive: 1.01
14,COc1ccc(NC(=O)Nc2ccc3c(c2)CC(=O)N([C@@H](C)CO)C[C@@H](C)[C@H](CN(C)S(=O)(=O)c2cn(C)cn2)O3)cc1,inactive: 0.993
15,CC(C)(CO)NC(=O)C(=O)NC1CC1,inactive: 0.986
16,Nn1c(Nc2ccc(Cl)cc2)nncc1=O,inactive: 0.978
17,CO[C@@H]1CN(C)C(=O)c2ccc(NS(C)(=O)=O)cc2OC[C@H](C)N(C(=O)CN(C)C)C[C@@H]1C,inactive: 1.02
18,CCS(=O)(=O)Nc1ccc2c(c1)C(=O)N(C)[C@H]1CC[C@H](CC(=O)NCc3ccccc3F)O[C@@H]1CO2,inactive: 0.964
19,C[C@@H]1CN([C@@H](C)CO)C(=O)c2cc(NS(=O)(=O)c3ccc(F)cc3)ccc2O[C@@H](C)CCCCO[C@H]1CN(C)Cc1ccccc1,inactive: 0.979
20,C[C@H]1CN([C@@H](C)CO)C(=O)c2cccc(NC(=O)Nc3ccc(C(F)(F)F)cc3)c2O[C@H]1CN(C)C(=O)Nc1ccc2c(c1)OCO2,inactive: 0.872

row,Compound,relative growth
1,COc1ccc(S(=O)(=O)Nc2ccc3c(c2)C(=O)N([C@@H](C)CO)C[C@H](C)[C@H](CN(C)C(=O)CCC(F)(F)F)OCCCC[C@@H](C)O3)cc1,inactive: 0.972
2,NNc1ccc2nncn2n1,inactive: 0.977
3,COc1ccc(CN(C)C[C@@H]2Oc3ccc(NC(=O)Nc4ccc(C(F)(F)F)cc4)cc3CC(=O)N([C@H](C)CO)C[C@@H]2C)cc1,inactive: 1.04
4,Cc1ccc(C(=O)N2c3ccccc3Sc3ccccc32)cc1,inactive: 1.02
5,C[C@@H]1CN([C@@H](C)CO)C(=O)c2cc(NS(=O)(=O)c3cccs3)ccc2O[C@@H](C)CCCCO[C@H]1CN(C)Cc1ccc(C(F)(F)F)cc1,inactive: 1.03
6,C[C@H](CO)N1C[C@H](C)[C@H](CN(C)Cc2cccc(C(=O)O)c2)OCc2ccccc2-c2c(n(C)c3ccccc23)C1=O,inactive: 0.957
7,O=C(C[C@@H]1C[C@H]2c3cc(NC(=O)c4ccc5c(c4)OCO5)ccc3O[C@H]2[C@H](CO)O1)NCc1cccnc1,inactive: 1.01
8,Cc1noc(C)c1NC(=O)N(C)C[C@@H]1Oc2ccc(NC(=O)c3ccncc3)cc2CC(=O)N([C@H](C)CO)C[C@@H]1C,inactive: 0.98
9,COc1ccc(NC(=O)Nc2cccc3c2O[C@H](CN(C)CC2CCCCC2)[C@H](C)CN([C@@H](C)CO)C3=O)cc1,inactive: 1.02
10,Cc1noc(C)c1NC(=O)N(C)C[C@@H]1Oc2ccc(NS(=O)(=O)c3cn(C)cn3)cc2CC(=O)N([C@@H](C)CO)C[C@@H]1C,inactive: 0.997
11,CC(C)CN1C(=O)[C@@]2(c3ccc([N+](=O)[O-])cc3)CC(=O)N(CC3C4CC5CC(C4)CC3C5)[C@@H]2c2ccc(CO)cc21 (stereo not given in full),inactive: 1
12,CNC(=O)CN1C(=O)c2ccccc2S1(=O)=O,inactive: 0.937
13,O=C(NC(CO)C(O)c1ccc([N+](=O)[O-])cc1)C(Cl)Cl (stereo not given),active: 0.0428
14,CC(C)(Sc1ccncc1-c1ccc(C#N)c2ccccc12)C(=O)O,inactive: 1.01
15,C[C@@H]1CN([C@H](C)CO)C(=O)c2cc(C#CC(C)(C)O)cnc2O[C@H]1CN(C)C(=O)CN(C)C,inactive: 0.991
16,CCN1C(=O)C(N=O)N(CC)C1=S (stereo not given),inactive: 0.995
17,Cc1noc(C)c1NC(=O)Nc1ccc2c(c1)C(=O)N([C@H](C)CO)C[C@H](C)[C@H](CN(C)C(=O)Nc1ccccc1)OCCCC[C@@H](C)O2,inactive: 0.991
18,C[C@@H]1CCCCO[C@@H](CN(C)C(=O)Nc2ccc3c(c2)OCO3)[C@@H](C)CN([C@H](C)CO)C(=O)c2cc(NS(=O)(=O)c3ccccc3)ccc2O1,inactive: 1.01
19,O=C(O)CCCNC(=O)c1cncc(O)c1,inactive: 0.99
20,COc1ccc(NC(=O)N(C)C[C@@H]2Oc3ccc(NC(=O)CCCCCC(=O)Nc4ccccc4N)cc3CC(=O)N([C@@H](C)CO)C[C@H]2C)cc1,inactive: 0.976
